Some of the results follow.
These sequences were tested on PfHDP1 homeodomain (GST-tagged) (assay: gcPBM binding intensity (ln(normalized median fluorescence intensity)); higher = stronger DNA binding).
Summary of the method: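 The highest Masliner-normalised natural-log median intensity across replicate spots of either probe orientation is reported as binding intensity. GST-tagged P. falciparum DNA-binding domains expressed in E. coli were applied for 1 h to an Agilent 4 × 180k array of primer-extended double-stranded 36-bp intergenic genomic probes plus negative controls, and bound protein was detected with Alexa488 anti-GST antibody and scanned at 488 nm.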

Row | Sequence | gcPBM binding intensity (ln)
1 | TTTATTAAACTTGACACACACACACCCACATATATA [CACACA_site760] | 6.9
2 | ATATTATATAGAAACACACATACACATGTAAATATA [CACACA_site2037] | 6.99
3 | ATCTTATATTATCACACACACACGCACAAAACAGAA [CACACA_site1463] | 7.52
4 | ATATAGAAAATGCATACACACTTTATATATATATTT [CACACA_site4658] | 6.43
5 | TAATTATTTCGTATATTTGAATGGTACATGCTTATA [CACACA_negctrl_site1178] | 6.24
6 | ATGGATTTTACCATAGCACACATATATGAATATTTT [CACACA_site8535] | 6.49
7 | AAAATTCAGCGAAAGGGTACATATGTGTAAGGGTAA [XGTACX_site8205] | 7.43
8 | TATATTTATATACCAACACACATACATATTTATATA [CACACA_site6931] | 6.62
9 | CTATTATATCAGTAGACACACATATAACATTTATAT [CACACA_site141] | 6.67
10 | ATATAAAAAAAAAAAAAAAAATATATATATATATAT [GTGCAC_negctrl_site251] | 9.37
11 | GATATACTGTCAATTCTACACACCATAGGGGGAGCA [CACACA_site8562] | 7.33
12 | TTGGTTTGAAAGAAAGAAATTATTAAAAAGGAAATA [CACACA_negctrl_site26] | 6.34
13 | GTATGAAAAAAAATATGTACACATATATATTTGGTA [XGTACX_site6309] | 6.45
14 | TTGTGTTCTTATTTTTACACCGAAAAATATTAAAAG [CACACA_negctrl_site535] | 6.6
15 | CCTTTATACATTTTCTGTACTGATATATATTAAAAA [XGTACX_site8467] | 6.83
16 | TACTGATCCACATTTATACACACCTCGGTTTGTAGA [CACACA_site417] | 6.84
17 | ATATATATATATACAACACACATGTAATATATAAAT [CACACA_site3294] | 9.13
18 | TATAGATTCTTTTAATGTACATGTCTTTTCATTTCC [XGTACX_site8348] | 6.45
19 | TTTTTAAATATATAATAGAATTGATTGTATTATATA [CACACA_negctrl_site196] | 6.04

Row | Sequence | gcPBM binding intensity (ln)
20 | GAAAATATATTATTTACACACATGTTCAAATTAAAA [CACACA_site3761] | 6.59
21 | AAACAATTTATGTGTAGTACATGTTGGAGATAATTT [XGTACX_site6000] | 6.69
22 | TATTAAATATAAGTCACACATAATTTTTCGTCCTTT [CACACA_site5065] | 6.24
23 | TTGTTTTTTTCTTTTTGTACATATACAACATACATA [XGTACX_site8996] | 6.79
24 | CATACACCCGGACACACACACACACCCATATATAAT [CACACA_site4494] | 7.24
25 | ATCATAACACCTCCACACAAATAAATATAACATATA [XGTACX_negctrl_site269] | 6.73
26 | ATGAGTGCACAAATATATATATATATATATATATAT [CACACA_negctrl_site404] | 10.7
27 | GTTATACGCATATATACACACATATGTAAATATATA [CACACA_site3280] | 7.08
28 | CTTTTTATTAAATATGCATGTGTATCAACAGTGAAT [TGCATGCA_site447] | 6.81
29 | TAAAAAAAATAGCATACACACATATATACCTATATA [CACACA_site4535] | 6.2
30 | ATTTATTTTAATTTTTTTTTTTCTCTTTTGGATCTA [CACACA_negctrl_site1408] | 5.79
31 | AATGAATTTAATTCTACTATTTTTTTTTTAAATATT [XGTACX_negctrl_site296] | 6
32 | TTCTCAAAGTTTACGTGTACATAAATTATATAAATG [XGTACX_site2622] | 6.52
33 | TGTAATATGAAATGTGTACACACGCACCCACAAAAA [CACACA_site8948] | 7.66
34 | ATTAGGCATATTTTCTGTACACAATAATAAAAAAAA [XGTACX_site3957] | 6.54
35 | AAACAAAGGGAACATGTGCACTTACAAAAAAAAAGA | 9.91
36 | AATAGATATATAAATACACACAAACATACCTATATA [CACACA_site7823] | 6.88
37 | TCACACCTTTTTGGTTGTACTTAAATTTCTTTTTTT [XGTACX_site6438] | 5.88
38 | ATATATATATATGCATGTACATATATTTGTTATATC [XGTACX_site3197] | 9.16

Row | Sequence | gcPBM binding intensity (ln)
39 | TTCCCTTATTTTGTATGTACACAATTTATCATGTTG [XGTACX_site2896] | 7
40 | AAAAAAAAAAAAATGGTGCAACTTTGTTAAAGGAAA [GTGCAC_site9950] | 9.48
41 | ATTTAAAAGTTGGTAGTGCATTAAAAATAACAAAAA [GTGCAC_site9835] | 9.69
42 | AATTTCTTCCATTGTAGTACTCAATTTTTTTTTGTT [XGTACX_site5847] | 7.33
43 | CACATATACAAAAAGAAATGTTTAGTTGAAAATTAA [CACACA_negctrl_site1407] | 5.98
44 | GTGTAATATTATATATATATATATAATATATATACA [CACACA_negctrl_site263] | 6.51
45 | GACAGATTATAGCATAGTACTCATACATACATACAT [XGTACX_site1252] | 7.37
46 | TACATACATACATACACACACACATCTATATTTATA [CACACA_site6171] | 7.5
47 | TTTCAAAAATTATTTTGTACATATAATTAATATACG [XGTACX_site512] | 6.34
48 | TTTTATTATTTGTCTTGTACTCATTGTAAGAGTATG [XGTACX_site1538] | 6.55
49 | ATTAAATACATTAACACACACACAAATAAATACATA [CACACA_site5583] | 7
50 | TGATAATAAGCATACACACACACACCCAAAAAAAAA [CACACA_site721] | 6.84
51 | TATTACATTATTCAAAAAAATTTATATGGTTATAGG [CACACA_negctrl_site1657] | 6.3
52 | ATATATATATATATATATATATATATGATTATTACT [GTGCAC_negctrl_site109] | 9.43
53 | AAATAAAAAAAAAAAAAAAATAACTTAAATGGGATA [TGCATGCA_negctrl_site595] | 6.06
54 | AACTAAATGTTATTCGCACACGGAATTTATTTAATG [CACACA_site3664] | 6.7
55 | TTTTTTTTTTCTTTTTTTCTCATGAAATTCTAAATG [CACACA_negctrl_site918] | 6.04
56 | TAAACTATATTTACATGTACATATAATATTAAATAA [XGTACX_site3528] | 6.35

From the supplement of paper PMC11417369
